From PubChem BioAssay AID1671193 (National Center for Advancing Translational Sciences (NCATS), 2021)
“And” between values parts separate entries of the source, which are not always exact repeats. Identical values can stand only once. The campaign covered roughly 150,000 compounds. About 180 (0.12%) were called active. Inconclusive means that the source gave no clear call. Such entries were picked first, then a sample of the others. The call rests on the fitted dose curve; in most records, active means well fitted cell-killing curve with a large enough effect; inconclusive means small, poorly fitted or top-dose-only effect, or effect the other way; inactive means flat fitted curve, though single readings scatter. A potency beside an inconclusive call is a rough fit, not a confirmed value.

assay: GF-AFC viability counterscreen for inhibitors of alpha-synuclein gene (SNCA) expression; conditions: HEK-293-SNCA-luc viability, GF-AFC fluorescence, 24 h; activity change, negative = cytotoxicity: at 57.1 µM (top of the series) unless noted; further: nearly all actives have a fitted effect of over 30% in size;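 on activity change, negative = cytotoxicity: 0% = DMSO-treated cells and -100% = medium-only wells without cells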
Procedure, shortened: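 HEK-293-SNCA-luc cells (1500/well) plated 24 h, then exposed 24 h to a dilution series; GF-AFC added 30 min at 37C, fluorescence 405/540 nm; normalised to medium-only and DMSO wells, Hill fit.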
Potency means the concentration at half of the fitted maximal effect; tags describe the fitted curve by direction and shape.

SMILES | Potency | activity change, negative = cytotoxicity
c1cc(Cn2ccc3c(N4CCOCC4)nc(-c4ccc5cn[nH]c5c4)cc32)ccn1 | inactive | 
COc1ccc(CCNC(=O)c2cc(Nc3ccccc3)nc3ccccc23)cc1OC | inconclusive: 20 µM [cytotoxic, partial curve, poor fit] | 
COc1cccc2c(NCc3ccccc3)nc(-n3c(N)nc4ccccc43)nc12 | inconclusive: 42.9 µM [cytotoxic, single point] and inconclusive: 37.7 µM [cytotoxic, single point] | 
Cc1nc2c(-c3cnc(N)nc3)nc(N3CCOCC3)nc2n1C(C)C | inconclusive: 212 nM [cytotoxic, full curve, poor fit] and inconclusive: 215 nM [cytotoxic, full curve] | 
Nc1nccc(Oc2ccc(NC(=O)c3c[nH]cc(-c4ccc(F)cc4)c3=O)cc2F)c1Cl | inconclusive: 21.5 µM [cytotoxic, partial curve, poor fit] | 
Cn1ccc(C(=O)N2CC3ON=C(C(=O)N4CCOCC4)C3C2)n1 (centres undefined) | inactive | 
COc1ccc(/C=C/CN2CCC(CCC(=O)Nc3ccccc3Cl)CC2)cc1 | inactive | 
O=C(Nc1ccc(F)cc1)N[C@H]1[C@H](O)[C@@H](Oc2ccccc2)[C@@H]2OC[C@H]1O2 | inactive | 
COc1ccc(-c2noc(-c3cccn3CC(=O)Nc3cc(Cl)ccc3OC)n2)cc1F | inconclusive: 39.8 µM [cytotoxic, single point] | 
CCn1c(=O)cc(OCC(=O)N2CCN(c3ccc(C)cc3)C(C)C2)c2ccccc21 (centres undefined) | inconclusive: 39.8 µM [cytotoxic, single point] | 
CN1CCN(c2ncc3nc(-c4cn(C)c5ccccc45)c(=O)n(-c4ccccc4)c3n2)CC1 | inconclusive: 12.6 µM [rising, partial curve] | 
CC1CCC(NC(=O)c2ccc(CS(=O)(=O)c3ccc(Cl)cc3)o2)CC1 (centres undefined) | inconclusive: 3.16 µM [cytotoxic, full curve] | 
COCCNC(=O)[C@H]1C[C@H](Oc2cccnc2)CN1C(=O)NCc1ccc(C)cc1 | inconclusive: 39.8 µM [cytotoxic, partial curve, poor fit] | 
O=C(c1ccc2c(c1)OCO2)c1cn(Cc2ccc(Cl)cc2)c2ccc(F)cc2c1=O | inconclusive: 7.08 µM [cytotoxic, partial curve, poor fit] | 
CCCCNC(=O)C(CC)Sc1nc2ccccc2c(=O)n1Cc1ccco1 (centres undefined) | inconclusive: 14.1 µM [cytotoxic, partial curve, poor fit] | 
COc1ccccc1CNC(=O)c1ccc2[nH]c(C)c(C)c2c1 | inconclusive: 7.94 µM [cytotoxic, single point] | 
CC(C)c1ccc(OCC(=O)c2ccc3c(c2)N(CCCC(=O)N2CCOCC2)C(=O)CO3)cc1 | inactive | 
CC(=O)N(C)CCc1noc(C2CN(C(=O)c3c(C)noc3C)C2)n1 | inactive | 
O=C(c1cnn2c1CN([S+](=O)([O-])c1cccc(C(F)(F)F)c1)CC2)N1CCOCC1 | inconclusive: 3.16 µM [cytotoxic, partial curve, poor fit] | 
O=C(Nc1ccc2c(c1)OCCO2)N1CCC(Cc2nncn2-c2ccccc2)CC1 | inactive | 
CNc1nc2c(s1)C(c1ccc(F)c(F)c1)CC(=O)N2 (centres undefined) | inactive | 
CCN(CC)C(=O)C[C@@H]1c2nc(NC(=O)c3ccco3)sc2C[C@@H]2[C@](C)(CO)[C@H](O)CC[C@]21C | inactive | 

SMILES | Potency | activity change, negative = cytotoxicity
CC1(C)[C@H]2CC[C@@H](CNC(=O)c3ccccc3Cl)[C@@H]1C2 | inactive | 
CC1=C(C)C(=O)C(C(CCCCCC(=O)O)c2ccccc2)=C(C)C1=O (centres undefined) | inconclusive: 38.3 µM [cytotoxic, single point] | 
O=C(NCc1ccc(F)c(F)c1)c1cn2cc(-c3ccccc3)sc2n1 | inactive | 
Cc1noc(C2CCCCCN2C(=O)NCC(C)C)n1 (centres undefined) | inconclusive: 3.55 µM [cytotoxic, single point] | 
C[C@@H](NC(=O)[C@H](O)c1cc(F)cc(F)c1)C(=O)N[C@@H]1C(=O)N(C)c2ccccc2-c2ccccc21 | inactive | 
CCOc1cc(OCC)cc(C(=O)Nc2cccc(-c3nc4ccccc4[nH]3)c2)c1 | inconclusive: 39.8 µM [cytotoxic, single point] | 
COc1cccc(Cn2c(=O)n(-c3cccc(Cl)c3)c(=O)c3c4c(sc32)CN(C(C)=O)CC4)c1 | inconclusive: 15.8 µM [cytotoxic, partial curve, poor fit] | 
CN(C/C=C/c1ccccc1)c1cc(C2CC(O)C2)nc(N)n1 (centres undefined) | inconclusive: 12.6 µM [cytotoxic, partial curve, poor fit] | 
CC(C)c1noc(-c2ccn3c(CNC(=O)c4ccc(N(C)C)cc4)nnc3c2)n1 | inconclusive: 3.98 µM [cytotoxic, full curve] | 
Cc1cc(C)cc(C(=O)N2CCN(c3cc(-c4ccccc4)[nH]n3)CC2)c1 | inconclusive: 39.8 µM [cytotoxic, single point] | 
CCCN1C(=O)c2[nH]nc(-c3ccccc3)c2C1c1cccc(O)c1 (centres undefined) | inconclusive: 15.8 µM [cytotoxic, partial curve] | 
CC(C)NC(=O)c1cn2cc(-c3ccccc3)sc2n1 | inactive | 
O=C(CSc1cn(CC(=O)N2CCCCC2)c2ccccc12)NCc1ccccc1 | inconclusive: 15.8 µM [cytotoxic, partial curve, poor fit] | 
COc1ccccc1C(=O)Nc1ccc2nc(SCCOc3ccccc3C)sc2c1 | inconclusive: 2.51 µM [cytotoxic, full curve, poor fit] | 
O=C(NCc1ccc(Cl)cc1)[C@@H]1Cc2nc[nH]c2CN1Cc1ccc(Cl)cc1 | inconclusive: 56.2 µM [cytotoxic, single point] | 
O=C(NCc1ccccc1)N1CCCCC1c1nc(-c2cnccn2)n[nH]1 (centres undefined) | inactive | 
CCOC(=O)c1c(-c2ccc(C)cc2)csc1NC(=O)c1cc(=O)c2cc(C)ccc2o1 |  | inconclusive: 37.2%
COC(=O)N1CCC(C(=O)N2CCC(N3CCOCC3=O)CC2)CC1 | inactive | 
Oc1ccc(-c2ccc(-c3cc(Nc4cccc(CNC5CC5)c4)n[nH]3)cc2)c(O)c1 | inconclusive: 24.1 µM [cytotoxic, partial curve, poor fit] | 
O=C(Nc1ccccc1C(=O)OCc1cc(=O)n2c3c(sc2n1)CCCC3)c1ccc(F)cc1 | inconclusive: 2.24 µM [cytotoxic, partial curve, poor fit] | 
COCCNC(=O)[C@@H]1Cc2cn(Cc3ccccn3)c3cccc(c23)[C@H](CC(C)C)N1 | inconclusive: 56.2 µM [cytotoxic, single point] | 
O=C(NC1CC1)[C@@H]1C[C@H](Oc2ccccc2)CN1C(=O)c1cc2ccccc2[nH]1 | inconclusive: 7.08 µM [cytotoxic, single point] | 

SMILES | Potency | activity change, negative = cytotoxicity
O=C(c1ccc2cc[nH]c2c1)N1CCCN(c2cc(-c3ccc(F)cc3)[nH]n2)CC1 | inactive | 
COc1ccc(-c2ccnc3nc(CCc4ccc(OC)c(OC)c4)nn23)cc1 | inactive | 
Cc1ccc2c(N3CCC(CO)(CN4CCCC4)CC3)ccnc2c1C | inconclusive: 35.5 µM [cytotoxic, single point] | 
CC1=C[C@@H](CNC(=O)C(C)(C)C)[C@H](C(C)C)C[C@H]1CC(=O)N(C)Cc1cccnc1 | inconclusive: 4.47 µM [cytotoxic, full curve, poor fit] | 
O=C(c1cc(F)ccc1Cl)N1C[C@@H](CO)[C@H](c2ccncc2)C1 | inconclusive: 7.08 µM [cytotoxic, single point] | 
COCCn1c(=O)c(-c2cccs2)nc2cnc(N(C)C)nc21 | inconclusive: 2.82 µM [rising, full curve, poor fit] | 
CC12C(=O)OC(=O)C1(C)C1CCC2O1 (centres undefined) | inconclusive: 2.82 µM [cytotoxic, full curve, poor fit] | 
O=C(NCC(=O)N1CCN(c2ccccn2)CC1)c1cc2ccccc2[nH]1 | inactive | 
O=C(c1ccc2c(c1)OCO2)N1CCC(c2n[nH]c(=O)n2-c2ccccc2)CC1 | inactive | 
O=C1CCc2cc(S(=O)(=O)CCC(=O)N3CCC(CCOc4ccc(F)cc4)C3)ccc2N1 (centres undefined) | inactive | 
COc1ccc(N2CCN(c3nc(C(=O)NCc4ccc(C)c(C)c4)cs3)CC2)cc1 | inconclusive: 39.8 µM [cytotoxic, single point] | 
COc1cccc(C(=O)Nc2cc(-c3ccccn3)nn2-c2ccccc2)c1 | inconclusive: 31.6 µM [cytotoxic, partial curve, poor fit] | 
Cc1cccc(CS(=O)(=O)c2ncc(Cl)c(C(=O)Nc3nnc(C(C)C)s3)n2)c1 | inconclusive: 39.8 µM [cytotoxic, single point] | 
Cc1cccc(OCC(=O)c2ccc3c(c2)N(C(C)C(=O)Nc2ccccc2)C(=O)CO3)c1C (centres undefined) | inactive | 
O=C(c1ccc(N2CC3CC(C2)[C@H]2CCCC(=O)N2C3)nc1)N1CCC(Cc2ccccc2)CC1 (some centres undefined) | inconclusive: 0.891 µM [cytotoxic, full curve, poor fit] | 
COc1ccc(N2CCN(c3nc(C(=O)N4CCN(C)CC4)cs3)CC2)cc1 | inactive | 
O=C(COc1ccccc1Cl)Nc1ccc(-c2nc3ccccc3s2)cc1 | inactive | 
O=C(NCc1ccco1)[C@@H]1Cc2nc[nH]c2CN1CCCc1ccccc1 | inactive | 
CSc1cccc(NC(=O)C2CCN(c3cnc4nc(C)c(C)nc4c3)CC2)c1 | inactive | 
Cc1nc(C(C)C)sc1C(=O)N[C@H]1C[C@H]2CN(C)CCN2C1 | inconclusive: 1.12 µM [rising, full curve, poor fit] | 
